Hit rate of the full screen: of about 150,000 compounds, about 540 (0.36%) showed an effect of 50% or more. Some of the results follow.
tested on: Plasmodium falciparum; test: Primary screen in NF54 nanoGlo assay, in single point, at 2uM, 72h; a lower Z score goes with more inhibition; format: functional, Erythrocyte; settings: timepoint 72 hour

SMILES	% Inhibition	Z score
COc1cccc(F)c1[C@H](C)NCCNC(=O)C(C)(C)C	-15%	1.37
O=C(NCc1cccc(-n2ccnc2)c1)NC[C@@H]1C[C@H](c2ccccc2)CO1	-8%	1.66
Cc1nc2nc(C3CCCCC3)nn2c(C)c1CC(=O)N1CCc2ccccc2C1	-2%	0.21
CCc1ccc(N2C(=O)c3cc(C(C)(C)C)nn3C[C@@]2(C)C(=O)NC2CCCCCC2)cc1	-6%	0.89
CC(C)C(=O)N[C@@H](N1CCCCCC1)C(Cl)(Cl)Cl	-15%	2.02
CCC1=N[C@@H](NC(=N)N)Nc2cc(C)ccc21	0%	-0.06
Cc1ccc(CN(C(=O)C2CCN(CCO)CC2)C2CCCC2)s1	-1%	0.19
Cc1noc(COCC(=O)Nc2cc(-c3ccccc3C)nn2CCO)n1	-1%	0.12
COC(=O)[C@@H](c1cc(F)c(F)c(F)c1)N(C)C(=O)c1cccn1C	1%	-0.18
O=c1c2ccccc2ncn1CCCn1ccnc1	-29%	2.64
Cc1cccc2c(-c3cccc(C(N)=O)n3)c[nH]c12	-6%	1.19
O=C(NC1CCCC1)N1CCC[C@H](Cn2cc(-c3ccncc3)nn2)C1	1%	-0.12
C=CCOC[C@@H](O)CN(CCC(C)C)Cc1cccn1C	-1%	0.2
O=C(NCc1ccc(O)c(F)c1)c1snnc1C1CC1	-2%	0.21
O=C(CCc1ccccc1)N1CCC[C@H](OCc2cccc(Cl)c2)C1	2%	-0.42
Cc1ccc(C(=O)C2CCN(C(=O)c3cccc4cn[nH]c34)CC2)c(C)c1	-15%	2.03
c1cncc(-c2nc3nccc(-c4ccsc4)n3n2)c1	-11%	1.41
O[C@@H]1C[C@H]2CN(c3ccnc4c(C(F)(F)F)cccc34)C[C@H]2C[C@@H]1O	-10%	1.78
O=C(NCc1cc(-c2ccccc2)n[nH]1)[C@@H]1CCC[C@H](O)C1	-7%	0.68
CCCS(=O)(=O)NCC1CCN(C(C)C)CC1	-1%	0.24
CCc1oc2ccccc2c1C(=O)N1CCC[C@H]1CO	-15%	2.3
Cc1cnc(CCNC(=O)c2ccoc2)n1C(C)C	-5%	0.93
O=C(c1nccc2ccccc12)N1CCc2cc(Br)ccc21	-1%	0.11
O=C(C[C@H]1CCCCO1)Nc1ncc(Oc2ccccc2)cn1	-5%	1.08
Cc1nc[nH]c1-c1nccn1CCc1cccs1	-15%	2.71
Cc1cc(C(=O)N2Cc3cnn(CCO)c3C2)c2ccc(C)c(C)c2n1	8%	-1.61
CN1C(=O)[C@]2(NC(=O)c3ccccc3O2)c2ccccc21	-11%	1.48

SMILES	% Inhibition	Z score
Cc1cccc(-c2nsc3c(=O)n(CC(=O)Nc4ccc5c(c4)OCCO5)cnc23)c1	-11%	1.83
O=C(NCc1cccc(F)c1)[C@H]1CCCN(c2nnc3ccc(Cl)cn23)C1	-10%	1.09
CCn1c(Cn2cnn(C)c2=O)nc2cc(S(=O)(=O)N(C)C)ccc21	-2%	0.38
CCn1nc(C)c2ccn(CC(=O)NCc3ccccn3)c(=O)c21	-14%	1.38
O=C(N[C@H]1CCN(Cc2ccccc2)C1)N1CCCCCC1	-2%	0.32
COc1cc(OC)cc(C(=O)Nc2cnc(N3CCCCC3)c(C)c2)c1	36%	-0.78
CC(C)(C)c1ccc(CCC(=O)N2CCC[C@H](c3nnc4ccccn34)C2)cc1	-3%	0.61
O=C(c1cc(/C=C/C2CCCCC2)c[nH]1)N1CCOCC1	8%	-1.3
Cn1nc(-c2nc(C3CCOCC3)no2)c2c1CN(C(=O)Cc1cccnc1)C2	6%	-0.93
Cn1cc(CCCNC(=O)c2ccccc2C#N)cn1	-13%	2.43
COCC(=O)Nc1cc(C(=O)NC2CCCCCC2)c2c(c1)ncn2Cc1ccc(F)cc1	-4%	0.75
O=C(c1cccs1)N1CCC[C@H](c2nnn[nH]2)C1	10%	-1.49
CC1CC(C)(C)CC2(C1)OCC(Cn1cncn1)O2 (stereo not drawn)	-10%	1.08
CC[C@@H](CNC(=O)C1(C)COC1)N1CCOCC1	1%	-0.22
Cc1nc(-c2ccccc2)n(CN2CCOC(C)(C)C2)n1	-10%	1.84
O=C(CC[C@H]1CCOC1)Nc1c(O)cc(Br)cc1Cl	3%	-0.66
Cc1cc(C2CCC2)nc(-c2ccccc2C#N)n1	-10%	1.93
O=C(CCOC1CCOCC1)NCC1CN(C(=O)c2ccccc2)C2CCN1C2 (stereo not drawn)	3%	-0.3
CCN(CC)C(=O)N1CC[C@H](CCOc2ccccc2)C1	-2%	0.26
Cc1cc(O)ccc1C(=O)N1C[C@H]2CCC[C@@H](C1)N(C)C2	-11%	1.51
COc1ccc(C(=O)N2CCN(c3c(C)n(-c4ccccc4)c(=O)n(C)c3=O)CC2)cc1	-4%	0.74
Cc1cc(C(=O)Nc2ccc(Cl)cc2)n(CC(=O)Nc2ccc(F)cc2)n1	-8%	1.2
COC(=O)c1n[nH]c2ccc(NC(=O)c3ccccc3OCC(=O)Nc3ccccc3F)cc12	0%	-0.02
Cc1cccc(NC(=O)CN(CC(=O)Nc2cccc(C)c2C)Cc2ccco2)c1C	13%	-2.25
CCCc1nn(-c2cccc(F)c2)c(N2CCN(CC)CC2)c1CN(CCC)Cc1sccc1C	-3%	0.25
CC(C)(C)c1noc(OCc2cnns2)n1	1%	-0.07
Cc1ccccc1C(=O)N1CCC2(CC1)CCC(O)(CN1CCN(C)CC1)CC2	-10%	1.29

Reference: ChEMBL document CHEMBL4888484, “Replenishing the malaria drug discovery pipeline: Screening and hit evaluation of the MMV Hit Generation Library 1 (HGL1) against asexual blood stage Plasmodium falciparum ,using a nano luciferase reporter read-out” (2022)
